# Test results taken from the supplement of paper PMC8728848.
# The other results are listed elsewhere or left out.
# B1: Als1 (Candida albicans), P46590 (protein)
# chain: KTITGVFDSFNSLTWSNAANYAFKGPGYPTWNAVLGWSLDGTSANPGDTFTLNMPCVFKYTTSQTSVDLTADGVKYATCQFYSGEEFTTFSTLTCTVNDALKSSIKAFGTVTLPIAFNVGGTGSSTDLEDSKCFTAGTNTVTFNDGDKDISIDVEFEKSTVDPSGYLYASRVMPSLNKVTTLFVAPQCENGYTSGTMGFSSSNGDVAIDCSNIHIGITKGLNDWNYPVSSESFSYTKTCTSNGIQIKYQNVPAGYRPFIDAYISATDVNQYTLAYTNDYTCAGSRLQSKPFTLRWTGYKNSDAGSNGIVIVATTRTVTDSTTAVTTLPFNPSVDKTKTIEILQPIPTTTITTSYVGVTTSYLTKTAPIGETATVIVDVPYHTTTTVTSEWTGTITTTTTRTNPTDSIDTVVVQVP
# Assays:
# Assay in all cases: glycan array binding signal (z-score within array); higher = stronger binding
# Details in all cases: glycan notation: IUPAC condensed, linker removed
# [1] = biological target: Neu5Ac(a2-3)Gal(b1-4)GlcNAc(b1-3)[Neu5Ac(a2-3)Gal(b1-4)GlcNAc(b1-6)]GalNAc
# Procedure, shortened: (§1)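 Negative Z-scores can be read as non-binding. The Z-score is calculated within each array and then averaged across arrays of one protein sequence at different concentrations or buffers and across linkers. Arrays, 3228 in all, were curated from the Consortium for Functional Glycomics database and kept only where the protein sequence was available.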
# [2] = biological target: Neu5Ac(a2-3)Gal(b1-4)GlcNAc(b1-6)GalNAc
# Procedure, shortened: as §1
# [3] = biological target: Neu5Ac(a2-3)Gal(b1-4)GlcNAc(b1-6)[Gal(b1-3)]GalNAc
# Procedure, shortened: as §1
# [4] = biological target: Neu5Ac(a2-3)Gal(b1-4)GlcNAc(b1-6)[Neu5Ac(a2-3)Gal(b1-3)]GalNAc
# Procedure, shortened: as §1
# [5] = biological target: Neu5Ac(a2-3)Gal(b1-4)GlcNAc6S
# Procedure, shortened: as §1
# [6] = biological target: Neu5Ac(a2-3)Gal(b1-4)[Fuc(a1-3)]GlcNAc
# Procedure, shortened: as §1
# [7] = biological target: Neu5Ac(a2-3)Gal(b1-4)[Fuc(a1-3)]GlcNAc(b1-2)Man
# Procedure, shortened: as §1
# [8] = biological target: Neu5Ac(a2-3)Gal(b1-4)[Fuc(a1-3)]GlcNAc(b1-3)Gal
# Procedure, shortened: as §1
# [9] = biological target: Neu5Ac(a2-3)Gal(b1-4)[Fuc(a1-3)]GlcNAc(b1-3)Gal(b1-4)GlcNAc
# Procedure, shortened: as §1
# [10] = biological target: Neu5Ac(a2-3)Gal(b1-4)[Fuc(a1-3)]GlcNAc(b1-3)Gal(b1-4)[Fuc(a1-3)]GlcNAc(b1-3)Gal(b1-4)[Fuc(a1-3)]GlcNAc
# Procedure, shortened: as §1
# [11] = biological target: Neu5Ac(a2-3)Gal(b1-4)[Fuc(a1-3)]GlcNAc(b1-3)GalNAc
# Procedure, shortened: as §1
# [12] = biological target: Neu5Ac(a2-3)Gal(b1-4)[Fuc(a1-3)]GlcNAc(b1-6)[Gal(b1-3)]GalNAc
# Procedure, shortened: as §1
# [13] = biological target: Neu5Ac(a2-3)Gal(b1-4)[Fuc(a1-3)]GlcNAc(b1-6)[Neu5Ac(a2-3)Gal(b1-3)]GalNAc
# Procedure, shortened: as §1
# [14] = biological target: Neu5Ac(a2-3)Gal(b1-4)[Fuc(a1-3)]GlcNAc6S
# Procedure, shortened: as §1
# [15] = biological target: Neu5Ac(a2-3)Gal6S(b1-4)GlcNAc
# Procedure, shortened: as §1
# [16] = biological target: Neu5Ac(a2-3)Gal6S(b1-4)[Fuc(a1-3)]GlcNAc
# Procedure, shortened: as §1
# [17] = biological target: Neu5Ac(a2-3)GalNAc
# Procedure, shortened: as §1
# [18] = biological target: Neu5Ac(a2-3)GalNAc(b1-4)GlcNAc
# Procedure, shortened: as §1
# [19] = biological target: Neu5Ac(a2-3)[GalNAc(b1-4)]Gal(b1-4)Glc
# Procedure, shortened: as §1
# [20] = biological target: Neu5Ac(a2-3)[GalNAc(b1-4)]Gal(b1-4)GlcNAc
# Procedure, shortened: as §1
# [21] = biological target: Neu5Ac(a2-3)[GalNAc(b1-4)]Gal(b1-4)GlcNAc(b1-3)GalNAc
# Procedure, shortened: as §1
# [22] = biological target: Neu5Ac(a2-3)[Neu5Ac(a2-6)]GalNAc
# Procedure, shortened: as §1
# [23] = biological target: Neu5Ac(a2-6)Gal
# Procedure, shortened: as §1
# [24] = biological target: Neu5Ac(a2-6)Gal(b1-3)GlcNAc(b1-3)[Gal(b1-4)GlcNAc(b1-6)]Gal(b1-4)Glc
# Procedure, shortened: as §1
# [25] = biological target: Neu5Ac(a2-6)Gal(b1-4)Glc
# Procedure, shortened: as §1
# [26] = biological target: Neu5Ac(a2-6)Gal(b1-4)GlcNAc
# Procedure, shortened: as §1
# [27] = biological target: Neu5Ac(a2-6)Gal(b1-4)GlcNAc(b1-2)Man
# Procedure, shortened: as §1
# [28] = biological target: Neu5Ac(a2-6)Gal(b1-4)GlcNAc(b1-2)Man(a1-3)Man(b1-4)GlcNAc(b1-4)GlcNAc
# Procedure, shortened: as §1
# [29] = biological target: Neu5Ac(a2-6)Gal(b1-4)GlcNAc(b1-2)Man(a1-3)[Gal(b1-4)GlcNAc(b1-2)Man(a1-6)]Man(b1-4)GlcNAc(b1-4)GlcNAc
# Procedure, shortened: as §1
# [30] = biological target: Neu5Ac(a2-6)Gal(b1-4)GlcNAc(b1-2)Man(a1-3)[GlcNAc(b1-2)Man(a1-6)]Man(b1-4)GlcNAc(b1-4)GlcNAc
# Procedure, shortened: as §1
# [31] = biological target: Neu5Ac(a2-6)Gal(b1-4)GlcNAc(b1-2)Man(a1-3)[GlcNAc(b1-4)][Neu5Ac(a2-6)Gal(b1-4)GlcNAc(b1-2)Man(a1-6)]Man(b1-4)GlcNAc(b1-4)GlcNAc
# Procedure, shortened: as §1
binder,measurement,setting,value
B1,glycan array binding signal (z-score),[1],-0.445
same,glycan array binding signal (z-score),[2],-0.544
same,glycan array binding signal (z-score),[3],-0.412
same,glycan array binding signal (z-score),[4],-0.097
same,glycan array binding signal (z-score),[5],-0.321
same,glycan array binding signal (z-score),[6],-0.262
same,glycan array binding signal (z-score),[7],1.01
same,glycan array binding signal (z-score),[8],-0.45
same,glycan array binding signal (z-score),[9],-0.379
same,glycan array binding signal (z-score),[10],-0.455
same,glycan array binding signal (z-score),[11],0.938
same,glycan array binding signal (z-score),[12],1.95
same,glycan array binding signal (z-score),[13],2.16
same,glycan array binding signal (z-score),[14],0.208
same,glycan array binding signal (z-score),[15],-0.132
same,glycan array binding signal (z-score),[16],-0.667
same,glycan array binding signal (z-score),[17],0.102
same,glycan array binding signal (z-score),[18],-0.462
same,glycan array binding signal (z-score),[19],-0.291
same,glycan array binding signal (z-score),[20],-0.209
same,glycan array binding signal (z-score),[21],-0.192
same,glycan array binding signal (z-score),[22],-0.223
same,glycan array binding signal (z-score),[23],0.039
same,glycan array binding signal (z-score),[24],-0.516
same,glycan array binding signal (z-score),[25],-0.495
same,glycan array binding signal (z-score),[26],-0.22
same,glycan array binding signal (z-score),[27],-0.302
same,glycan array binding signal (z-score),[28],0.451
same,glycan array binding signal (z-score),[29],-0.55
same,glycan array binding signal (z-score),[30],-0.596
same,glycan array binding signal (z-score),[31],0.276
